Among the data in publication PMC10726135 are binding signal (log2 normalized intensity) values, retold here.

This is one part of the list. At the low end of the ranking, values are background and their order means little. The protein was read in a cell extract, so binding may be indirect.

For this assay, the target named is T1, HNF4alpha2 (COS-7 nuclear extract) (UniProt P41235).
T1 sequence: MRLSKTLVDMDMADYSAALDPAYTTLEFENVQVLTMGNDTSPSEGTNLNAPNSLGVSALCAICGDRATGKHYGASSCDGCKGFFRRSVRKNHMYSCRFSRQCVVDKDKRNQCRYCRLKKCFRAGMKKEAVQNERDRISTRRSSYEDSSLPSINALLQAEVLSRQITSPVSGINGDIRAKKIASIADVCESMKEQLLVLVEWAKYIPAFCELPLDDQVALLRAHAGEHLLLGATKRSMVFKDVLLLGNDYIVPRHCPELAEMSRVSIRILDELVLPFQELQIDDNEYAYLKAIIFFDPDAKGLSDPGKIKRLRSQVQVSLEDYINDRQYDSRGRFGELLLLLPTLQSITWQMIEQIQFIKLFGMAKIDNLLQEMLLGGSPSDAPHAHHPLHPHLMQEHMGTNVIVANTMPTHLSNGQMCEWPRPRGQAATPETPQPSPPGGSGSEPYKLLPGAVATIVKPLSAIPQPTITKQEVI
In words: protein-binding microarray. The note with it: COS-7 nuclear extract on double-stranded Agilent 4x180k PBM; binding buffer, salt, pH and temperature not given; high values mean tight binding; double strand, one strand shown; sequences stand for … in …GCCTAGGGAGATTAGAGTATCGGTCGA
For GGGCGCACAAGATGCCGCCTCCCCGGGGAT, the binding signal (log2 normalized intensity) is -1.15.

On to GAGATGGCCCCTCTCTTTTATTATATTGAA, for which the binding signal (log2 normalized intensity) was determined as 0.894. For GGGGGTTGCAAGTCTGAGGCTGCTCTCTGT the value was -0.211. As for TTGAGTTTGCTCTGCTACTAACTGCATGAC, the figure is -0.452; as for TAGTCTTATCTCAAAGGGAGATTCCTGACA, 0.393. As for GTGTATGGACTGTAATACACAAGCAATAGG, the figure is -1.03; as for TAGCTCGGGGGCCCTTCCCCCCTCTGCAGC, 2.42; as for GGCAAAAGAGATAGCGAGAAGGCAGGTAGA, -1.02.

With CAGCAATCACCTACCCCCAGATTCTCTGTT, the binding signal (log2 normalized intensity) stood at 2.35. Turning to TGATGACTTTTGACCCCAGGGGAAACTCCA, the binding signal (log2 normalized intensity) amounted to 3.99. As for TGTACAATGGAAGTGAGTCAGTTCTGTCCA, the figure is 0.757; as for CTAACCCCTAACCCAGTGAATTCCTTCCTT, 2.05. For GGAGAGAGTTTGGCCCCAGTTCCCATGGAC the value was 1.18; for GGTGAGCAGAGGGAGGACAAAGTTCTGTCC, 1.09.

Take TCAGTAAATCTTAGAGAACACTCCTCCCCT: the binding signal (log2 normalized intensity) was 3.16. As to GGACTTGATCCAGGGCAAAGGTCATAATTT, the binding signal (log2 normalized intensity) worked out at 6.98. For GGCTGGCCCTGAGCCAAGGGAGCACAACCC the value was -1.21. As for GAGCAAATACTTATGATATGAAGCATTGCT, the figure is -1.12; as for AACATTACTAACTGGACTTTATCTACCATT, 1.72. On to ATCTTTTCTTTTAAAAAGCTGCAATGGCTT, for which the binding signal (log2 normalized intensity) was -1.08. As for GTGTCAGCATCTAAACCTCTGCACACAGGA, the figure is -1.16. For CGGATCCTCCCAGCCTGGAGGAGGGCGAGG the value was -1.17. For AGAATTCCAGAGATGCCAGGAGAGCCGAAG the value was -1.07; for GATAGCCTTTGCCTCCACCTTCTCTCCCAC, 0.506. On to AAGTTCCCCGGGCAGCTGTGTTTGCAGCCG, for which the binding signal (log2 normalized intensity) is -1.01.

Consider GACGCTCAGTAAATCTGCACTTTACGTAAG, for which the binding signal (log2 normalized intensity) is -1.03. Take ATGCTGGTCTCCTTGCCCCACCCCCCACCC: the binding signal (log2 normalized intensity) is 7.6.

For ATCCTGCCTCCATTAATTAACCTTTGAGCT, the binding signal (log2 normalized intensity) was 5.75. As for GTCCTAAAGAGGATATCCTGGCAGTGTGGA, the binding signal (log2 normalized intensity) is 0.914.

For the sequence TAGGAGGTCAGCACAAGATACAGCTTATCA, the binding signal (log2 normalized intensity) is -1.21. As to CTGTTTATGGGTTAACAGAATGAACAGCTC, the binding signal (log2 normalized intensity) came to 1.22. As for GCTGAGGTTAGAATCCTTATCTGGTGTGCT, the figure is 0.171; as for TAAGTGGAATGTTGCTGTGCTGCCCTCTTG, 2.51.

Consider TTGTCTGACTGTGATACCAGGGGTCATTTT, for which the binding signal (log2 normalized intensity) is 4.17.

On to GATAACAGCTTGATAATCCCCATGGGACCA, for which the binding signal (log2 normalized intensity) is -1.09. For GTCACGTGTGACCAAGGACAAACTGAGGAG the value was -0.811.

As to CAATGTGACTGGAGCAGAGCGATCAAAGGT, the binding signal (log2 normalized intensity) was found to be 0.667. For TTACCCGCTTAAGAGTGAATTCTGCAGCAG the value was -0.966; for AGCCTGCCCTCCTAGGGACAGGTGCGACGA, -1.12. For AGTCAGAAGAACTGATTCCAAAGGAAATCA the value was -1.16.

For the sequence AACAGAGATTTGCAGCTCAAAGTGCTTTTC, the binding signal (log2 normalized intensity) is -0.764.

Take GAAAAACTGAGCTTTAGATAGCTGTTAAAT: the binding signal (log2 normalized intensity) was -0.652.

Turning to TTAACAAGCATTTTGTTCCCATTGATCATT, the binding signal (log2 normalized intensity) came out at 1.23. For AATGTCTGGAAGTTCTTCCTTAAGTCTAAC the value was 0.81; for TATGGCCTTTCTTCATTGTTCGCATACCTC, 1.51. Turning to TCGGCCTTTGACCTCGTGATAACGACATTC, the binding signal (log2 normalized intensity) stood at 3.69. For AACCTAGCCCCCTTTCCCTTATCTTTGTTA the value was 2.42; for GGAGCAATCATCGCACCTAAGGGCACCCTT, -1.19; for TTTGCACAGTACTGATCTGGGGCCTATCTT, 0.204.

Consider CAAAGCCCCTTTCCACTCTACCGTCCTCCC, for which the binding signal (log2 normalized intensity) is 1.91. For CAAGCAAACTGCAAATACAGGTGAATTTCA the value was -1.13. Turning to TAACCATACTGAGTGTTGGTCAGGACGTGA, the binding signal (log2 normalized intensity) stood at 0.874. As for ACCTTTGAGCTGAGTTCCACAGATAAGGAG, the figure is -0.731. For AGTCCTGCATGTGTTCACACCACACTCTCC the value was -0.662; for CCAAAAGACCACACTCATCAGGTGAGATAA, -1.27. As for ATCATTAGGGAAAATAGTGACCCTGTCTCT, the figure is 2.12; as for TCCCTTTGTCTCCAGGCCCTGGGATTGGCT, -0.699. With AGAGAGCCAGATGAAGCTGCAGCCTTAAGA, the binding signal (log2 normalized intensity) was -1.2. For AGAATAAATCTGTTAGCAGAGCAATTACTC the value was -1.01. For AACTGTCTCTGTTGCTCAATTCTGCTGTTG the value was 0.745; for GATTTACCTCTGACCACTCTGCCAGGTGAC, -1.11. As for ACTGATTCCAAAGGAAATCACATAGTAACA, the figure is -1.02; as for TTTTTACCATCTCCAACATGACCACCTGGT, 1.6; as for GCAAGTATTTCACCCCAGAGGCTAAATGAC, -0.182. Turning to GTCAGTTCATTAAAAAAAAAAAAAAATACT, the binding signal (log2 normalized intensity) is -0.903.

Take GTATCAGGGCTCAGGAATGTGGGGTCAACA: the binding signal (log2 normalized intensity) worked out at 2.99. For GTGGAGTTGACACAGACCTGCCTCTCTCTC the value was -1.12; for TAGGCTGTAGAGGAGATGTGGTGGACTTTA, 4.25; for CCACTGCCTGCCTGCCAACTCCACGCCCGC, -1.14. As for CTTCAAAGAAGAGCTCAGTCACAGCAGTGG, the figure is -1.15. Turning to TATGCCCCCCCACCCCACACACACACAGCA, the binding signal (log2 normalized intensity) is 6.17. As for AGACATTCTGGCAAAGCCAATCTGCTTAAA, the figure is -1.21.
